Test results as given in paper PMC9911399, “Two distinct binding modes provide the RNA-binding protein RbFox with extraordinary sequence specificity”.
Positions count from the first letter of the chain named. The list shows a part of the results.

T1: RBFOX1 RRM RbFoxmut (Fox-RRM*) (Homo sapiens, UniProt Q9NWB1 109-208, R118D;E147R;N151S;E152T)
T1 sequence: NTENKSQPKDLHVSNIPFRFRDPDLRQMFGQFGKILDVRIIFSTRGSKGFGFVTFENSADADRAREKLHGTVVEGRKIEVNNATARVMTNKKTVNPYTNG

B1: ACGAACG (DNA:RNA)
RNA: GGGAGACCGGAAUUCAGAUUGUCCACGAACGUUAAAUCCCGUCGUAGCCACCA
DNA 1: CAATCTGAATTCCGGTCTCCC
DNA 2: TGGTGGCTACGACGGGATT
B2: UACUCAU (DNA:RNA)
RNA: GGGAGACCGGAAUUCAGAUUGUCCUACUCAUUUAAAUCCCGUCGUAGCCACCA
DNA 1: CAATCTGAATTCCGGTCTCCC
DNA 2: TGGTGGCTACGACGGGATT
B3: CCUUAGG (DNA:RNA)
RNA: B1 RNA with A25C, G27U, A28U, C30G
DNA 1: CAATCTGAATTCCGGTCTCCC
DNA 2: TGGTGGCTACGACGGGATT
B4: CCAAUGA (DNA:RNA)
RNA: B1 RNA with A25C, G27A, A29U, C30G, G31A
DNA 1: CAATCTGAATTCCGGTCTCCC
DNA 2: TGGTGGCTACGACGGGATT
B5: CGAACGC (DNA:RNA)
RNA: B1 RNA with A25C, C26G, G27A, A29C, C30G, G31C
DNA 1: CAATCTGAATTCCGGTCTCCC
DNA 2: TGGTGGCTACGACGGGATT
B6: UAUCUGG (DNA:RNA)
RNA: B2 RNA with C27U, U28C, C29U, A30G, U31G
DNA 1: CAATCTGAATTCCGGTCTCCC
DNA 2: TGGTGGCTACGACGGGATT
B7: UUAGUUG (DNA:RNA)
RNA: B1 RNA with A25U, C26U, G27A, A28G, A29U, C30U
DNA 1: CAATCTGAATTCCGGTCTCCC
DNA 2: TGGTGGCTACGACGGGATT
B8: CCGAAAU (DNA:RNA)
RNA: B1 RNA with A25C, C30A, G31U
DNA 1: CAATCTGAATTCCGGTCTCCC
DNA 2: TGGTGGCTACGACGGGATT
B9: UACCGAU (DNA:RNA)
RNA: B2 RNA with U28C, C29G
DNA 1: CAATCTGAATTCCGGTCTCCC
DNA 2: TGGTGGCTACGACGGGATT

What follows are binders tested against T1, RBFOX1 RRM RbFoxmut (Fox-RRM*) (assay: EMSA; HiTS-Eq, 1 nM pool, 10 min; buffer printed only for the single-RNA assays: 10 mM Tris pH 7.5, 150 mM NaCl, 3.4 mM EDTA, 0.001% NP-40, 30 C). Conditions: tags: His6 N-terminal (pET28a); label: 5' 32P.
Outline: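 These values rest on relative association constants, computed from read-count changes of each RNA species versus the control reaction and normalised to the cognate motif. Reads came from free RNA recovered by 8% native PAGE after purified RbFox RRM (wild type or mutant) at increasing concentrations was equilibrated for 10 min in 50 µL with 1 nM of a 5′-radiolabelled pool with 7 randomized nucleotides and DNA-annealed flanks.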

| Binder | binding signal |
| --- | --- |
| B1 | 0.26 KA relative to UGCAUGU |
| B2 | 0.0982 KA relative to UGCAUGU |
| B3 | 0.0675 KA relative to UGCAUGU |
| B4 | 0.112 KA relative to UGCAUGU |
| B5 | 0.0925 KA relative to UGCAUGU |
| B6 | 0.1 KA relative to UGCAUGU |
| B7 | 0.142 KA relative to UGCAUGU |
| B8 | 0.0632 KA relative to UGCAUGU |
| B9 | 0.0652 KA relative to UGCAUGU |
